According to patent US10299477B2 (priority 2015, dated 2019):

Tests used:
Assay type in all cases: in vivo
[1] = tested on: Botrytis cinerea; assay: Test Example B: Gray mold on tomato; details: in vivo
Text: [Test Example B] Gray Mold on Tomato
Seeds of a test plant (tomato variety: Oogata Fukuju) were planted followed by cultivating until three to five first leaves (true leaves) appeared.

[2] = tested on: Alternaia brassicicola; assay: Test Example C: Alternaria sooty spot on cabbage; details: in vivo
Text: [Test Example C] Alternaria Sooty Spot on Cabbage
Seeds of a test plant (cabbage variety: Shikidori) were planted followed by cultivating until the cotyledons extended.

[3] = tested on: Blumeria graminis f sp. hordei; assay: Test Example D: Powdery mildew on barley; details: in vivo
Text: [Test Example D] Powdery Mildew on Barley
After the sprayed dilutions were dried, conidia of Blumeria graminis f sp. hordei were inoculated to the plants by shaking off.

[4] = tested on: Puccinia recondita; assay: Test Example E: Brown rust on wheat; details: in vivo
Text: [Test Example E] Brown Rust on Wheat

[5] = tested on: Plasmopara viticola; assay: Test Example G: Downy mildew on vine; details: 250 ppm, sprayed 2.5 ml/pot before inoculation; evaluated 7-10 days after inoculation
Text: [Test Example G] Downy Mildew on Vine
Seeds of a test plant (grape variety: Neomuscat) were planted followed by cultivating until three to four first leaves appeared. […] After the sprayed dilutions were dried, a zoosporangia suspension (1-2×10^4 zoosporangia/ml) of Plasmopara viticola was inoculated to the plants by spraying.

SMILES | Test B (control value class, gray mold on tomato) [1] | Test C (control value class, Alternaria sooty spot on cabbage) [2] | Test D (control value class, powdery mildew on barley) [3] | Test E (control value class, brown rust on wheat) [4] | Test G (control value class, downy mildew on vine) [5]
Cc1cc(F)c(-c2c(-c3cc(F)ccc3Cl)cc(Cl)c(=O)n2C)c(F)c1 [Compound 691] | H (H shows more than 50% of control values) | H (H shows more than 50% of control values) | H (H shows more than 50% of control values) | H (H shows more than 50% of control values) | H (H shows more than 50% of control values)
CCn1c(-c2c(F)cc(Br)cc2F)c(-c2cc(F)ccc2Cl)ccc1=O [Compound 692] | H (H shows more than 50% of control values) | H (H shows more than 50% of control values) | H (H shows more than 50% of control values) | H (H shows more than 50% of control values) | L (L shows 50% or less of control values)
CCn1c(-c2c(F)cc(OC)cc2F)c(-c2cc(F)cc(F)c2Cl)ccc1=O [Compound 693] | H (H shows more than 50% of control values) | H (H shows more than 50% of control values) | H (H shows more than 50% of control values) | H (H shows more than 50% of control values) | H (H shows more than 50% of control values)
Cc1cc(-c2cc(F)cc(F)c2Cl)c(-c2c(F)cc(F)cc2F)n(C)c1=O [Compound 694] | H (H shows more than 50% of control values) | H (H shows more than 50% of control values) | H (H shows more than 50% of control values) | H (H shows more than 50% of control values) | H (H shows more than 50% of control values)
CCn1c(-c2c(F)cc(F)cc2F)c(-c2cc(OC)cc(OC)c2Cl)ccc1=O [Compound 696] | H (H shows more than 50% of control values) | H (H shows more than 50% of control values) | H (H shows more than 50% of control values) | H (H shows more than 50% of control values) | H (H shows more than 50% of control values)
CCn1c(-c2c(F)cc(OC)cc2F)c(-c2cccc(F)c2C)ccc1=O [Compound 697] | H (H shows more than 50% of control values) | H (H shows more than 50% of control values) | H (H shows more than 50% of control values) | H (H shows more than 50% of control values) | H (H shows more than 50% of control values)
CCOc1cc(F)c(-c2c(-c3cccc(F)c3C)ccc(=O)n2CC)c(F)c1 [Compound 698] | H (H shows more than 50% of control values) | H (H shows more than 50% of control values) | H (H shows more than 50% of control values) | H (H shows more than 50% of control values) | H (H shows more than 50% of control values)
CCn1c(-c2c(F)cc(OC)cc2F)c(-c2cccc(F)c2C)cc(Cl)c1=O [Compound 699] | H (H shows more than 50% of control values) | H (H shows more than 50% of control values) | H (H shows more than 50% of control values) | H (H shows more than 50% of control values) | L (L shows 50% or less of control values)
CCn1c(-c2c(F)cc(OC)cc2F)c(-c2ccccc2Cl)cc(C)c1=O [Compound 701] | H (H shows more than 50% of control values) | H (H shows more than 50% of control values) | H (H shows more than 50% of control values) | H (H shows more than 50% of control values) | H (H shows more than 50% of control values)
CCOc1cc(F)c(-c2c(-c3ccccc3Cl)cc(C)c(=O)n2CC)c(F)c1 [Compound 702] | H (H shows more than 50% of control values) | H (H shows more than 50% of control values) | H (H shows more than 50% of control values) | H (H shows more than 50% of control values) | H (H shows more than 50% of control values)
CCOc1cc(F)c(-c2c(-c3ccccc3Cl)cc(Br)c(=O)n2CC)c(F)c1 [Compound 703] | H (H shows more than 50% of control values) | H (H shows more than 50% of control values) | H (H shows more than 50% of control values) | H (H shows more than 50% of control values) | H (H shows more than 50% of control values)
COc1ccc(Cl)c(C2=C(c3c(F)cccc3F)N(C#N)C(=O)CC2)c1 [Compound 704] | L (L shows 50% or less of control values) | L (L shows 50% or less of control values) | L (L shows 50% or less of control values) | L (L shows 50% or less of control values) | H (H shows more than 50% of control values)
CN1C(=O)CCC(c2ccccc2Cl)=C1c1c(F)cc(F)cc1F [Compound 705] | H (H shows more than 50% of control values) | L (L shows 50% or less of control values) | H (H shows more than 50% of control values) | H (H shows more than 50% of control values) | L (L shows 50% or less of control values)
CCn1c(-c2c(F)cc(Br)cc2F)c(-c2cc(F)ccc2Cl)cc(Cl)c1=O [Compound 706] | L (L shows 50% or less of control values) | L (L shows 50% or less of control values) | L (L shows 50% or less of control values) | H (H shows more than 50% of control values) | L (L shows 50% or less of control values)
